This is an account of results in a collection of fitness landscapes (doi:10.1126/science.1257360).

B1: PhoQ; a variant is named by its letters at X, in order, P23837 (parent)
chain: MKKLLRLFFPLSLRVRFLLATAAVVLVLSLAYGMVALIGYSVSFDKTTFRLLRGESNLFYTLAKWENNKLHVELPENIDKQSPTMTLIYDENGQLLWAQRDVPWLMKMIQPDWLKSNGFHEIEADVNDTSLLLSGDHSIQQQLQEVREDDDDAEMTHSVAVNVYPATSRMPKLTIVVVDTIPVELKSSYMVWSWFIYVLSANLLLVIPLLWVAAWWSLRPIEALAKEVRELEEHNRELLNPATTRELTSLVRNLNRLLKSERERYDKYRTTLTDLTHSLKTPLXXLQXXLRSLRSEKMSVSDAEPVMLEQISRISQQIGYYLHRASMRGGTLLSRELHPVAPLLDNLTSALNKVYQRKGVNISLDISPEISFVGEQNDFVEVMGNVLDNACKYCLEFVEISARQTDEHLYIVVEDDGPGIPLSKREVIFDRGQRVDTLRPGQGVGLAVAREITEQYEGKIVAGESMLGGARMEVIFGRQHSAPKDE

The other results are listed elsewhere or left out.

In the assay the parent is B1. As to the kind of experiment: enrichment ratio after two sorts for PhoP signalling (ratio (wild type AVST 3.29)); higher = more functional. The following applies: with PhoP (E. coli).
On to PHAT, for which the enrichment ratio was ≤ 0.25. Under MHWF stands ≤ 0.25. Under HMIR stands ≤ 0.25; under YSDM, ≤ 0.25; under QWCS, ≤ 0.25.

For the variant FGAV, the enrichment ratio was ≤ 0.25. Under FPKH stands ≤ 0.25; under FQVI, ≤ 0.25.

As to SEWC, the enrichment ratio came out at 1.88. To MMKM belongs ≤ 0.25; to AQLR, ≤ 0.25. Under ITFI stands ≤ 0.25; under QSHR, ≤ 0.25; under GKPS, ≤ 0.25.

ELQF: the enrichment ratio is ≤ 0.25. To MRYG belongs ≤ 0.25; to SWTI, ≤ 0.25. To ALGP belongs ≤ 0.25; to NYGF, ≤ 0.25; to RLRK, ≤ 0.25. To RWSG belongs ≤ 0.25.

Take MEMQ: the enrichment ratio was ≤ 0.25. To HFLA belongs ≤ 0.25; to GKHY, ≤ 0.25. With AKAH, the enrichment ratio is 4.55. Under EDEC stands ≤ 0.25; under YTCT, ≤ 0.25; under DYRH, ≤ 0.25. To ADWY belongs ≤ 0.25. To QNTG belongs ≤ 0.25; to ARFI, ≤ 0.25.

Regarding DRIE, the enrichment ratio was ≤ 0.25. For DINM, the enrichment ratio was ≤ 0.25. To GIAH belongs 22.5; to LTST, ≤ 0.25.

Consider MKIN, for which the enrichment ratio was ≤ 0.25. To LFGY belongs ≤ 0.25. Under FDRK stands ≤ 0.25. Under WEMA stands ≤ 0.25. As for QPDL, the enrichment ratio was ≤ 0.25. To AWCD belongs ≤ 0.25; to DSWM, ≤ 0.25. To SIPQ belongs ≤ 0.25; to PGRV, ≤ 0.25; to MEPH, ≤ 0.25.

For the variant AQTT, the enrichment ratio came to 9.04.

In the case of FLDP, the enrichment ratio was ≤ 0.25. To WRNA belongs ≤ 0.25; to YIKT, ≤ 0.25; to RPPY, ≤ 0.25. To PSAI belongs ≤ 0.25. Under TYPP stands ≤ 0.25; under NCKF, ≤ 0.25; under QQVL, 2.39. Take ILAD: the enrichment ratio is ≤ 0.25. In the case of QSNH, the enrichment ratio is 4.12. NFPD: the enrichment ratio is ≤ 0.25.

For RLQR, the enrichment ratio is ≤ 0.25.

As for WGGP, the enrichment ratio is ≤ 0.25. To QCFE belongs ≤ 0.25; to IANT, ≤ 0.25; to GDHL, ≤ 0.25.

On to PQKN, for which the enrichment ratio is ≤ 0.25. Consider PEFH, for which the enrichment ratio was ≤ 0.25. To NDDH belongs ≤ 0.25; to FQEC, ≤ 0.25; to QQII, ≤ 0.25. Under VQPV stands ≤ 0.25.

Consider SKKQ, for which the enrichment ratio is ≤ 0.25. To FRHQ belongs ≤ 0.25; to KMLD, ≤ 0.25.

For the variant PSHG, the enrichment ratio was ≤ 0.25. To IGVN belongs ≤ 0.25; to AHCK, ≤ 0.25; to VIGS, ≤ 0.25. To NNTN belongs ≤ 0.25; to SAYG, ≤ 0.25; to DAGE, ≤ 0.25.

For the variant MWSY, the enrichment ratio was ≤ 0.25. To QRLA belongs ≤ 0.25; to AQIL, 7.19; to YHEI, ≤ 0.25. To GRIG belongs ≤ 0.25. On to ALIS, for which the enrichment ratio is ≤ 0.25. To GDWA belongs ≤ 0.25; to RIVD, ≤ 0.25; to MRVY, ≤ 0.25. To ETIR belongs ≤ 0.25; to AFMV, ≤ 0.25. Under FNCK stands ≤ 0.25. Regarding GITT, the enrichment ratio is ≤ 0.25. With LPTH, the enrichment ratio is ≤ 0.25. Under VPMM stands ≤ 0.25. To ATKY belongs ≤ 0.25; to DCAP, ≤ 0.25; to NSWH, ≤ 0.25. To PRHL belongs ≤ 0.25; to SLCP, ≤ 0.25.

Regarding KALE, the enrichment ratio is ≤ 0.25. To HPRY belongs ≤ 0.25; to VCGD, ≤ 0.25; to AFVD, ≤ 0.25. Consider GRRT, for which the enrichment ratio is ≤ 0.25.

Turning to GIVH, the enrichment ratio turned out to be 8.59. Under RSTG stands ≤ 0.25; under SFGW, ≤ 0.25; under TKYQ, ≤ 0.25. To AQQG belongs 12.7; to AVIY, ≤ 0.25.

In the case of WNMS, the enrichment ratio was ≤ 0.25. To GNPL belongs ≤ 0.25; to TLKR, ≤ 0.25; to RAKF, ≤ 0.25.

As to RKEW, the enrichment ratio was ≤ 0.25.

For the variant IVFD, the enrichment ratio was ≤ 0.25. Consider YDIM, for which the enrichment ratio was ≤ 0.25. Under SFVF stands ≤ 0.25; under LMTQ, ≤ 0.25; under DVYT, ≤ 0.25. With NPTA, the enrichment ratio was ≤ 0.25.

As to KETR, the enrichment ratio was ≤ 0.25. Under KNMH stands ≤ 0.25; under GADI, ≤ 0.25; under IGGE, ≤ 0.25. Under EFAD stands ≤ 0.25. On to NPDG, for which the enrichment ratio was ≤ 0.25. Under DNQD stands ≤ 0.25; under GRFR, ≤ 0.25. Under LQEM stands ≤ 0.25; under SNWT, ≤ 0.25. Turning to VKFQ, the enrichment ratio is ≤ 0.25.

As to LKPW, the enrichment ratio is ≤ 0.25. To VHKK belongs ≤ 0.25. Under MGRK stands ≤ 0.25. On to EEPW, for which the enrichment ratio is ≤ 0.25. Take AQRA: the enrichment ratio was ≤ 0.25. To GIGK belongs ≤ 0.25; to TPHN, ≤ 0.25; to NHWM, ≤ 0.25. Regarding HDVL, the enrichment ratio is ≤ 0.25. For the variant QPQA, the enrichment ratio is ≤ 0.25. To ALWS belongs ≤ 0.25; to VQRE, ≤ 0.25. To GWAP belongs ≤ 0.25; to GQQA, ≤ 0.25. Under FFNG stands ≤ 0.25; under MVPV, ≤ 0.25; under NTMW, ≤ 0.25. As for VINL, the enrichment ratio was ≤ 0.25. To KPFW belongs ≤ 0.25; to EPSP, ≤ 0.25.

For WRRR, the enrichment ratio was ≤ 0.25. Take MGSE: the enrichment ratio is ≤ 0.25.

In the case of IPSI, the enrichment ratio is ≤ 0.25. To QDGK belongs ≤ 0.25; to TRNN, ≤ 0.25; to PDSL, ≤ 0.25. Under PPWN stands ≤ 0.25. To RVPR belongs ≤ 0.25; to SNCQ, 9.32.

Turning to MYKH, the enrichment ratio is ≤ 0.25. To VLSL belongs 0.415. Take QLYL: the enrichment ratio was 8.95. With DSTL, the enrichment ratio is ≤ 0.25. Under DMIT stands ≤ 0.25.

Turning to YVFK, the enrichment ratio was ≤ 0.25. To KFAH belongs ≤ 0.25; to IITH, ≤ 0.25; to ALCN, 3.89. Take SGMP: the enrichment ratio was ≤ 0.25. Under GLCT stands ≤ 0.25. EPLW: the enrichment ratio was ≤ 0.25.

As to RWFD, the enrichment ratio was ≤ 0.25.

In the case of KSQQ, the enrichment ratio was ≤ 0.25. To GGYY belongs ≤ 0.25. Under AFNI stands ≤ 0.25; under RWKG, ≤ 0.25; under DRGE, ≤ 0.25. To KEDF belongs ≤ 0.25; to PWHK, ≤ 0.25; to AGSC, 10.4. Take MMDC: the enrichment ratio was ≤ 0.25.

Consider CPII, for which the enrichment ratio is ≤ 0.25. To DHCN belongs ≤ 0.25. Under SQRW stands ≤ 0.25. Regarding DFAL, the enrichment ratio was ≤ 0.25.

For RSVS, the enrichment ratio is ≤ 0.25. Under GEIW stands ≤ 0.25; under LYKM, ≤ 0.25; under KFQN, ≤ 0.25. Under PLLV stands ≤ 0.25; under FQEY, ≤ 0.25; under MIQG, 0.317. Under DIAT stands ≤ 0.25; under EHIQ, ≤ 0.25; under NKDV, ≤ 0.25. Consider KMWF, for which the enrichment ratio was ≤ 0.25.

On to DEYD, for which the enrichment ratio is ≤ 0.25. Under GGCD stands ≤ 0.25; under AMCY, 25.2. With ALGH, the enrichment ratio is ≤ 0.25. On to GGLL, for which the enrichment ratio worked out at 12.7. To LIHC belongs ≤ 0.25; to YWGL, ≤ 0.25; to PHPM, ≤ 0.25. Under DCSL stands ≤ 0.25; under FLAW, ≤ 0.25. Under MHPY stands ≤ 0.25; under TRSL, 2.78; under ICTN, ≤ 0.25.

As for LKMP, the enrichment ratio was ≤ 0.25. Under KSQD stands ≤ 0.25. To TGYC belongs 13.2; to RNTK, ≤ 0.25; to NTYW, ≤ 0.25.

LAVQ: the enrichment ratio was ≤ 0.25. As to RQHA, the enrichment ratio is ≤ 0.25.

For KILT, the enrichment ratio is ≤ 0.25. Under VGRF stands ≤ 0.25; under IYYN, ≤ 0.25. Under EGNV stands ≤ 0.25; under QVVS, ≤ 0.25; under LARS, ≤ 0.25. As for GRCL, the enrichment ratio is ≤ 0.25. Under IPEY stands ≤ 0.25. Under SDCW stands ≤ 0.25; under RYYR, ≤ 0.25. To ECPY belongs ≤ 0.25; to DRLK, ≤ 0.25. MCFW: the enrichment ratio was ≤ 0.25.

HNIQ: the enrichment ratio is ≤ 0.25. As to QSVS, the enrichment ratio was ≤ 0.25. On to NLKA, for which the enrichment ratio was ≤ 0.25.

Consider CYHP, for which the enrichment ratio was ≤ 0.25. Under RCSL stands ≤ 0.25; under WCRG, ≤ 0.25. Regarding PLDN, the enrichment ratio is ≤ 0.25.

Take CCTV: the enrichment ratio was ≤ 0.25.

With DFHA, the enrichment ratio was ≤ 0.25. To SWIH belongs ≤ 0.25.

GPGM: the enrichment ratio is ≤ 0.25. To TVET belongs ≤ 0.25; to QDIW, ≤ 0.25; to VSQC, ≤ 0.25. Consider DCPN, for which the enrichment ratio was ≤ 0.25. To HLKN belongs ≤ 0.25; to LVTW, ≤ 0.25; to GNYG, ≤ 0.25. With DQTI, the enrichment ratio is ≤ 0.25. Under FIII stands ≤ 0.25; under PRHY, ≤ 0.25; under QTWL, 21.9. To GDAR belongs ≤ 0.25. Under QFVY stands ≤ 0.25; under TSGC, 9.62; under NGDT, ≤ 0.25. Regarding SMIM, the enrichment ratio was found to be 5.32. Under ITTG stands ≤ 0.25; under LIEI, ≤ 0.25; under VFKW, ≤ 0.25.

In the case of HYPR, the enrichment ratio was ≤ 0.25.

With GEGD, the enrichment ratio is ≤ 0.25. Under PHDI stands ≤ 0.25; under SLHL, 0.49. Under YDQS stands ≤ 0.25; under GKEQ, ≤ 0.25. Under IMFP stands ≤ 0.25; under ASWK, ≤ 0.25; under VRAN, ≤ 0.25. On to KVPW, for which the enrichment ratio was ≤ 0.25.

EYPW: the enrichment ratio was ≤ 0.25. Regarding PMRH, the enrichment ratio is ≤ 0.25. Under IRFW stands ≤ 0.25; under IIMD, ≤ 0.25; under YTGY, ≤ 0.25. To RWVT belongs ≤ 0.25. Under YCLM stands 14.9. As to DKMT, the enrichment ratio was ≤ 0.25.

For the variant KVVT, the enrichment ratio was ≤ 0.25. As to FWDH, the enrichment ratio is ≤ 0.25.

Consider IPYS, for which the enrichment ratio was ≤ 0.25. As for DIIC, the enrichment ratio was ≤ 0.25. Under KMYK stands ≤ 0.25; under GIYQ, ≤ 0.25; under SQQE, ≤ 0.25. Under IYVS stands ≤ 0.25; under AKGQ, ≤ 0.25.

On to TWTG, for which the enrichment ratio is ≤ 0.25. To FNWA belongs ≤ 0.25; to PGGC, ≤ 0.25; to YGIK, ≤ 0.25. On to AQEL, for which the enrichment ratio is ≤ 0.25. Under DFQP stands ≤ 0.25; under GGGL, ≤ 0.25. As for PMEF, the enrichment ratio was ≤ 0.25. To ALIH belongs ≤ 0.25; to NRSA, ≤ 0.25; to KASR, ≤ 0.25. To LKMF belongs ≤ 0.25; to RMQS, ≤ 0.25. On to ETFW, for which the enrichment ratio was ≤ 0.25.

On to AACC, for which the enrichment ratio was ≤ 0.25. Consider VEPS, for which the enrichment ratio is ≤ 0.25.

HSGV: the enrichment ratio is ≤ 0.25. To ETLI belongs ≤ 0.25; to LGTS, ≤ 0.25.
